For experiment [1], the target named is CD47 antigen expressed on CHO-K1 cells (UniProt Q08722). Kind of experiment: flow cytometry. (A flow cytometer gives signals particle by particle.)
The target of experiment [2] is T1, TIGIT antigen expressed on CHO-K1 cells (UniProt Q495A1 22-244).
T1 chain: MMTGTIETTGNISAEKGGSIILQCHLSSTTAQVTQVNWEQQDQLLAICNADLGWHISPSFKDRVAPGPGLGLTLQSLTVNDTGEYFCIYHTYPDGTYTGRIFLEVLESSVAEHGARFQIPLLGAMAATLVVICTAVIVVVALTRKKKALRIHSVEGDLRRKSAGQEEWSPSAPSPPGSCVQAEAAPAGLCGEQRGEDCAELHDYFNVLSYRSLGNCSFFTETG
As to the kind of experiment: flow cytometry.

This passage reports EC50 results from patent US20220267475A1 (published 2022).

Sequence of UniProt Q08722 (Q08722 19-323): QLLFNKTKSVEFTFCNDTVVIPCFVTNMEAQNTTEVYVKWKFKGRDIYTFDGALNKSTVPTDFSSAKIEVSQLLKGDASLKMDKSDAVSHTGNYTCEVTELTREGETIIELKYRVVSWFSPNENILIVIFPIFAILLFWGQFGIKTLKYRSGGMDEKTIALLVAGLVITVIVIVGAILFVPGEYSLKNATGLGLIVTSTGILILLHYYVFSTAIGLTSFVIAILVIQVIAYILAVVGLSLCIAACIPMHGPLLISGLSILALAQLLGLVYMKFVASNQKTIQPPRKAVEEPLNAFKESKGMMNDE

B1: sdAb-TIGIT-IgG4PE (Fc fusion)
chain: EVQLVESGGGLVQPGGSLRLSCAASGYKYGVYSMGWFRQAPGKGLEGVSAICSGGRTTYSDSVKGRFTISRDNSNQILYLQMNSLRAEDTAVYYCAARPLWTGDCDLSSSWYKTWGQGTLVTVSS[human IgG4 Fc with changes not listed]
As usually defined, the EC50 is the concentration at which the effect is half-maximal. A low value points to higher potency in that assay. Take B1: the results for the EC50 in experiment [1] and in experiment [2] were about 0.0695 nM and 0.46 nM, respectively.
